Experimental data taken from publication PMC9817974, “Pharmacokinetic Basis for Using Saliva Matrine Concentrations as a Clinical Compliance Monitoring in Antitumor B Chemoprevention Trials in Humans” (Cancers, 2022).

What was measured:
[1] = Pilot study, intravenous infusion of Matr in F344 rats, salivary excretion; format: in vivo
[2] = patients; reported, used for power calculation; no reference given; cited from earlier work
[3] = set-up: method as in ApexBio website [16]; conditions: ref ApexBio website [16]; cited from earlier work
Caco-2 = system: Caco-2; set-up: method as in Yang et al. [15]; conditions: ref Yang et al. [15]; cited from earlier work
[4] = set-up: method as in Yang et al. [15]; conditions: 2.0 mg/kg i.v.; ref Yang et al. [15]; cited from earlier work
CYP or UGT enzymes = system: CYP or UGT enzymes; set-up: method as in PMID 20034755; conditions: cited from earlier work
[5] = 2.8 mg/kg i.v.; cited from earlier work
[6] = Population compartmental PK co-model of plasma and saliva matrine (Model C); format: in vivo, human; conditions: for Km: plasma and saliva, 2400 mg
Procedure: The population PK model was developed using plasma and saliva concentrations of 8 healthy participants in the study. No input was made for the missing data points. Initial estimates of individual compartmental PK parameters were derived from non-compartmental analysis. Different compartmental PK models were tested to describe the plasma and saliva PK profiles of Matr. The population pharmacokinetic compartmental models using actual dosing and sampling times were built using Phoenix NLME 8.2. and goodness-of-fit was determined. More details of PK modeling are described in Supplementary Material S3 Section S3.
Model A has two compartments plasma and saliva, while a tissue compartment was added to Model B and Model C. A direct absorption to the saliva compartment was added in Model C (Figure 4) to account for the reabsorption of drug excreted in the saliva from the oral cavity and the intestine, thereby entering the recycling process (Figure 5).
S3. Compartmental Pharmacokinetic Co-modeling
The population PK model was developed using plasma and saliva concentrations of 8 healthy
participants in the study.
in blood sampling, no input was made for the missing data points. Initial estimates of individual
compartmental PK parameters were derived using WinNonlin® version 8.2. The concentration of
matrine in plasma and saliva were fitted simultaneously. Actual dosing and sampling times were
used for the compartmental modeling. Different compartmental PK models were tested to describe
the concentration of matrine in plasma and saliva compartments (Fig 7 in the main manuscript).
A1 = - (Cl_p * C) + (Aa * Ka)- (Vmax * C / (C + Km))- (A1 * K13) + (A2 * Ksp)
Aa = - (Aa * Ka)- (Aa * K_a2)
A2 = (Vmax * C / (C + Km))- (CL_s * Cs) + (A3 * Kts)- (A2 * Ksp) + (Aa * K_a2)
A3 = (A1 * Kpt)- (A3 * Kts)
The population pharmacokinetic compartmental models using actual dosing and sampling
times were built using Phoenix NLME 8.2. To determine the best fit pharmacokinetic model
structure, model selection and identification of variability were based on minimizing the Akaike
Information Criteria (AIC) and the log-likelihood values (-2LL), achieving adequate parameter
precision, inspection of goodness-of-fit plots and by comparison of the quality of fit plots (such as
observed vs. fitted data, weighted residual vs. fitted data, weighted residual vs. time).

O=C1CCC[C@@H]2[C@H]3CCCN4CCC[C@@H](CN12)[C@@H]34 [matrine]
time to salivary excretion [1]: ≤ 15 min | inter-individual variance of clearance (average) [2]: 70% | inter-individual variance of clearance (range) [2]: 60–83% | Solubility at pH 7.4 [3]: 50.00 mg/mL | Peff (Caco-2) (Caco-2): 42.5 ×10⁻⁶ cm/s | AUC0-T Rats Observed [4]: 1717.6 ng·h/mL | metabolism by CYP or UGT enzymes (CYP or UGT enzymes): not metabolized by CYP or UGT enzymes | AUC0-T Mice Observed [5]: 5131.1 ng·h/mL | Ka (absorption rate constant to the central compartment) ([6]; Model C estimate): 1.66 ± 0.27 h⁻¹ | Kas (absorption rate constant to the salivary compartment) ([6]; Model C estimate): 0.39 ± 0.14 h⁻¹ | Kpt (first-order rate constant plasma to tissue) ([6]; Model C estimate): 0.11 ± 0.02 h⁻¹ | Ksp (first-order rate constant saliva to plasma) ([6]; Model C estimate): 1.25 ± 0.28 h⁻¹ | Kts (first-order rate constant tissue to saliva) ([6]; Model C estimate): 23.42 ± 2.33 h⁻¹ | Tlag ([6]; Model C estimate): 0.44 ± 0.01 h | Vmax (maximum velocity of drug transfer rate, plasma to saliva) ([6]; Model C estimate): 11.88 ± 1.27 mg/h/kg | Vs (volume of distribution of the saliva compartment) ([6]; Model C estimate): 0.02 ± 0.01 L/kg | CL/F ([6]; both sexes, human, plasma, oral, 2400 mg ATB, Model C estimate, read-out: CLp (apparent clearance of plasma) (converted)): 0.333 mL/min/kg | Vd ([6]; both sexes, human, plasma, oral, 2400 mg ATB, Model C estimate, read-out: Vp (volume of distribution of the plasma compartment)): 1.42 ± 0.08 L/kg | Km ([6]; human, oral, Model C estimate converted from mg/L, read-out: Km of transport from plasma to saliva): 1130 µM | Km ([6]; human, oral, Model C estimate, read-out: Km (substrate concentration at half maximal transfer rate, plasma to saliva)): 280 ± 5.73 µg/mL

Where two headings read alike, the source gives them in different places.
